Structures can show the parent of a compound that is named as a salt. Over roughly 2,800 compounds, “cell viability relative to vehicle” has its median near 0.98; the lowest 2% begin near 0.45. The list shows a part of the results.
Tested on: NCI-H2228 alectinib-DTP
Assay: cell viability relative to vehicle (fraction of vehicle); NCI-H2228 is an ALK-positive lung cancer line and DTP means drug-tolerant persister; higher = less growth inhibition
Conditions: 100 nM; treatment time 6 days
Method in brief: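 The 3114-agent TargetMol anti-cancer compound library was tested at 100 nM for 6 days on parental NCI-H2228 cells and on persister cells derived with 1000 nM of a targeted drug for 13 days. ATP readout by the CellTiter-Glo 3D Cell Viability Assay gave cell viability relative to DMSO vehicle-treated cells.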

Row | SMILES | cell viability
1 | CC(C)CC(N)=O [Isovaleramide] | 1.12
2 | COc1c2occc2cc2ccc(=O)oc12 [8-Methoxypsoralen] | 0.987
3 | COc1ccc2c(OCc3nnc4ccc(-c5ccccc5)nn34)ccnc2c1 | 1.05
4 | Cn1c(=O)c2c(ncn2CC(=O)Nc2ccc(-c3ccccc3)nn2)n(C)c1=O | 1.15
5 | N=C(NCCCCCCNC(=N)NC(=N)Nc1ccc(Cl)cc1)NC(=N)Nc1ccc(Cl)cc1 [Chlorhexidine hydrochloride] | 1.02
6 | N=C(NCCCCCCNC(=N)NC(=N)Nc1ccc(Cl)cc1)NC(=N)Nc1ccc(Cl)cc1 [Chlorhexidine] | 1.17
7 | c1ccc(NCc2ccc(CNc3ccccn3)cc2)nc1 | 0.801
8 | CN1CCN(Cc2ccc(Nc3ncc(Cl)c(Nc4ccccc4S(=O)(=O)N(C)C)n3)cc2)CC1 | 0.122
9 | COC(=O)c1ccc2c(c1)nc(NC(=O)c1ccccc1)n2CCCc1ccccc1 | 1.07
10 | O=C(O)Cc1ccc(-c2ccccc2)cc1 [4-Biphenylacetic acid] | 0.987
11 | COc1cc(N2CCC(N3CCN(C)CC3)CC2)ccc1Nc1ncc(Cl)c(-c2c[nH]c3ccccc23)n1 | 0.893
12 | O=C(NC[C@H]1CN(c2ccc(N3CCOCC3=O)cc2)C(=O)O1)c1ccc(Cl)s1 [Rivaroxaban] | 1.05
13 | COc1ccc(-c2ccc3c(N4CCOC[C@@H]4C)nc(N4CCOC[C@@H]4C)nc3n2)cc1CO | 0.377
14 | O=C1C[C@@H](c2ccccc2)Oc2cc(O)cc(O)c21 [Pinocembrin] | 0.964
15 | COc1c(C)c(C(=O)c2ccc(N)c(C(=O)O)c2)n2ccccc12 | 1.01
16 | COc1nccc(-c2c(-c3ccc(F)cc3)ncn2C2CCC(O)CC2)n1 (stereo not given) | 0.882
17 | CN[C@@H](C)C(=O)N[C@H](C(=O)N1CCC[C@H]1c1nc(C(=O)c2ccc(F)cc2)cs1)C1CCCCC1 | 1.09
18 | CCCc1cc(C)[nH]c(=O)c1CNC(=O)c1cc(-c2ccc(N3CCN(C(C)C)CC3)nc2)cc2c1cnn2C(C)C | 1.13
19 | CCN(CC)CCOC(=O)C1(C2CCCCC2)CCCCC1 [Dicyclomine hydrochloride] | 1.07
20 | O=c1cc(-c2ccccc2)oc2c(O)c(O)ccc12 [7,8-Dihydroxyflavone] | 0.885
21 | Oc1cc(O)c2c(c1)O[C@H](c1ccc(O)c(O)c1)[C@@H](O)C2 [Cianidanol] | 0.938
22 | NC(=O)c1ccc(N(C(N)=O)c2c(F)cccc2F)nc1-c1ccc(F)cc1F | 0.981
23 | N=C1NC(=O)/C(=C/c2ccc(O)cc2)S1 [Mirin] | 1.05
24 | Nc1c(CC(=O)O)cccc1C(=O)c1ccccc1 [Amfenac Sodium Monohydrate] | 0.938
25 | C=C1[C@H](OC(=O)/C=C(\C)CC)C[C@@H](C(C)C)[C@@H]2[C@@H]([C@@H](C)OC(C)=O)C(=O)C[C@@H]12 [Tussilagone] | 1.07

Row | SMILES | cell viability
26 | COc1cc(N2CCOCC2)ccc1Nc1ncc(Cl)c(Nc2ccccc2NS(C)(=O)=O)n1 | 0.914
27 | COc1ccc([C@@H]2CC(=O)c3c(O)cc(O)cc3O2)cc1O [Hesperetin] | 1.01
28 | C[C@@H]1C(=O)O[C@H]2C[C@@]34[C@H]5C[C@@H](C(C)(C)C)[C@]36[C@@H](OC(=O)[C@@H]6O)O[C@@]4(C(=O)O5)[C@]21O [Ginkgolide A] | 0.973
29 | CC1=C(C(=O)OC2CCCCC2)C(c2ccc([N+](=O)[O-])cc2)C2=C(CC(C)(C)CC2=O)N1 (stereo not given) | 0.995
30 | CC(c1cc2ccccc2s1)N(O)C(N)=O (stereo not given) [Zileuton] | 1.1
31 | CC(=O)Oc1cc(C(C)C)c(OCCN(C)C)cc1C [Moxisylyte hydrochloride] | 1.19
32 | O=C(O)c1cc(O)c2c(c1)[C@H]([C@H]1c3cc(C(=O)O)cc(O)c3C(=O)c3c(O[C@@H]4O[C@H](CO)[C@@H](O)[C@H](O)[C@H]4O)cccc31)c1cccc(O[C@@H]3O[C@H](CO)[C@@H](O)[C@H](O)[C@H]3O)c1C2=O [Sennoside A] | 1.01
33 | Nc1ncnc2c1ncn2[C@@H]1O[C@H](COP(=O)(O)O)[C@@H](O)[C@H]1O [Adenosine 5'-monophosphate] | 0.937
34 | NC(=O)c1ncn([C@@H]2O[C@H](CO)[C@@H](O)[C@H]2O)c1N [AICAR (Acadesine)] | 0.895
35 | CC1=C(/C=C/C(C)=C/C=C/C(C)=C/C(=O)Nc2ccc(O)cc2)C(C)(C)CCC1 [Fenretinide] | 0.792
36 | C/C(=N\NC(=S)N1CCC1)c1ccccn1 | 0.362
37 | O=c1[nH]c(=O)n([C@H]2C[C@H](O)[C@@H](CO)O2)cc1F [Floxuridine] | 0.798
38 | O=C1c2cccc(O)c2C(=O)c2c(O)cc(CO)cc21 [Aloe-emodin] | 0.821
39 | CN(C)CCC=C1c2ccccc2C=Cc2ccccc21 [Cyclobenzaprine hydrochloride] | 1.04
40 | CN(C)CCc1c[nH]c2ccc(C[C@H]3COC(=O)N3)cc12 [Zolmitriptan] | 1.07
41 | O=C(NC1CCOCC1)c1ccc(-c2cc(-c3c[nH]nc3-c3ccccn3)ccn2)cc1 | 0.974
42 | O=C1C(=O)N(Cc2ccc(Cl)c(Cl)c2)c2ccccc21 [Apoptosis Activator 2] | 1.05
43 | NS(=O)(=O)c1cc2c(cc1Cl)NCNS2(=O)=O [Hydrochlorothiazide] | 0.962
44 | C[N+]1(C)CCC(=C(c2ccccc2)c2ccccc2)CC1 [Diphemanil mesylate] | 0.955
45 | COc1cc(/C=C/C(=O)O)ccc1O [Ferulic Acid] | 1.25
46 | COc1cc(/C=C/C(=O)O)ccc1O [Sodium ferulic] | 1.21
47 | CC(C)OC(=O)CCC/C=C\C[C@@H]1[C@@H](CC[C@@H](O)CCc2ccccc2)[C@H](O)C[C@@H]1O [Latanoprost] | 1.08
48 | CC(C)(F)C[C@H](N[C@@H](c1ccc(-c2ccc(S(C)(=O)=O)cc2)cc1)C(F)(F)F)C(=O)NC1(C#N)CC1 [Odanacatib] | 0.948
49 | COc1c(O[C@@H]2O[C@H](C(=O)O)[C@@H](O)[C@H](O)[C@H]2O)cc(O)c2c(=O)cc(-c3ccccc3)oc12 [Wogonoside] | 0.92
50 | C[C@@H]1COCCN1c1cc(C2([S@](C)(=N)=O)CC2)nc(-c2cc[nH]c3nccc2-3)n1 | 1.04
